Results published in the supplement of paper PMC3334620.
Whole data set: some 33,000 sequences, median “E-score (-0.5 to 0.5)” near -0.041, cut for the highest 2% near 0.37. This is one part of the list.

The sequences below were run against T1, Ecm22 (UniProt Q05958) (assay: PBM E-score (8-mer binding enrichment) (E-score (-0.5 to 0.5)); higher = stronger / more preferred TF binding; most listed sequences are background and not binding sites). Details: protein concentration: 200 nM; construct: GST-full length.
T1 sequence: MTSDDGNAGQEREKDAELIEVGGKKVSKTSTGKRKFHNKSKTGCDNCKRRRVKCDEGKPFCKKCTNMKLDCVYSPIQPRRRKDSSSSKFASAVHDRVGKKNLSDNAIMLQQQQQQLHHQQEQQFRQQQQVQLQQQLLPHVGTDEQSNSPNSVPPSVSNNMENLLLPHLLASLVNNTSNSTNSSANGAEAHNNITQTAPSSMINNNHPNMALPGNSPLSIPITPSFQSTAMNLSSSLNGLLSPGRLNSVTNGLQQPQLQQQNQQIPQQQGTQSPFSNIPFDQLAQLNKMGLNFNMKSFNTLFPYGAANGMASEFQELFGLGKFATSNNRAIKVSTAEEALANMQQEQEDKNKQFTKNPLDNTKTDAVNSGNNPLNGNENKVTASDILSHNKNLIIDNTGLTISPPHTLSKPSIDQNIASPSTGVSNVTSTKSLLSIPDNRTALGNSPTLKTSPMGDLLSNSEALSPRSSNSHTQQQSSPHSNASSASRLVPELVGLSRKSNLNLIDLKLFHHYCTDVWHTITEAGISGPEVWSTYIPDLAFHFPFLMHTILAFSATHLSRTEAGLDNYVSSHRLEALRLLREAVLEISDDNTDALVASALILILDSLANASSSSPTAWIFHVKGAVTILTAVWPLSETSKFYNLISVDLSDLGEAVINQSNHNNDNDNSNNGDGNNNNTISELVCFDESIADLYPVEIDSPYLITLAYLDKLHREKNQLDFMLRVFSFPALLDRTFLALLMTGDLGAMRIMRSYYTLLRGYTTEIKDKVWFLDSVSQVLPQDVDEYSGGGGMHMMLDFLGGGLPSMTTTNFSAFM
Method in brief: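 PURExpress in vitro transcription/translation supplied GST-tagged yeast transcription factors, either full-length or DNA-binding domain. Applied at about 100-200 nM to universal all-10-mer Agilent arrays double-stranded by primer extension, the bound protein was detected with fluorescent anti-GST. E-scores, modified Wilcoxon-Mann-Whitney statistics, were given by the Universal PBM Analysis Suite to ungapped eight-base words pooled with their reverse complements after masliner normalisation.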

| Sequence | PBM E-score |
| --- | --- |
| GGAAGTAC | -0.0217 |
| GTGCTGAA | 0.0416 |
| GTCCCGAC | 0.0492 |
| ACCGACGA | 0.269 |
| CAAGGTTC | -0.225 |
| CCCAACTC | -0.0551 |
| GACAAGAA | -0.0569 |
| AAAACCTT | -0.235 |
| GACGTCGC | 0.0811 |
| CATGGGCC | -0.209 |
| CTGCAAAA | -0.0893 |
| CGCCAGAG | -0.231 |
| ATTAGAAT | 0.0404 |
| AACGCGAT | 0.207 |
| ACGCATTG | -0.131 |
| ATTACAGC | -0.0246 |
| AAAAGATG | -0.0856 |
| CCGAGATC | 0.113 |
| CAGAACCA | -0.199 |
| GATCGTAA | 0.387 |
| TATATTAA | 0.198 |
| ACTGCGAC | 0.0785 |
| CTAGGTAA | -0.0984 |
| AACTTGTC | -0.0557 |
| CAGTAGCG | 0.0734 |

| Sequence | PBM E-score |
| --- | --- |
| TAACTCGA | 0.139 |
| AAACGAGG | 0.476 |
| ACCGCTAG | -0.228 |
| ACACGTGA | -0.00871 |
| AAAGGAGT | -0.131 |
| ACCTGGTG | -0.163 |
| AATCGCGG | -0.0579 |
| GGTCCAAC | -0.0751 |
| GATGTACA | -0.0923 |
| GACTGAAC | 0.0447 |
| CGTCAGGA | -0.0865 |
| CACCTGCC | -0.139 |
| AGATGTAT | -0.0612 |
| ACAGAATC | -0.187 |
| CAACGATG | 0.207 |
| GATGACAC | 0.0272 |
| AACTTTCG | 0.0435 |
| ACGCCCGC | 0.0667 |
| AATGGATA | -0.0169 |
| AGGAAAAG | -0.137 |
| CCCTCTGA | -0.132 |
| GTCTGTCA | -0.0284 |
| GTTCAGCA | 0.0643 |
| GTGGGCCA | -0.156 |
| CATCGTCA | -0.0402 |

| Sequence | PBM E-score |
| --- | --- |
| ATCGAGGC | -0.0398 |
| AACAGTAA | 0.0395 |
| AATCTGCG | 0.165 |
| ACTAGAGT | -0.144 |
| AAAAAGTA | 0.0279 |
| CCCTTTAC | 0.0178 |
| ACAGCTCT | -0.256 |
| ACTGTTAA | 0.0622 |
| CTCTAGAG | -0.311 |
| CACCGAGC | 0.0257 |
| GGTATACC | 0.0922 |
| CCATGCAC | -0.255 |
| GGGGACCA | -0.259 |
| AGTGTTCC | -0.0761 |
| ACTTTTCC | -0.123 |
| ATAGAGAG | -0.241 |
| TGTTGCAA | -0.0124 |
| TATGAGCA | -0.147 |
| CTTATGAC | 0.101 |
| GAATTCGA | -0.0811 |
| CGTTATTC | 0.0353 |
| GCTGAGAA | -0.202 |
| AGCATGTA | 0.059 |
| AGCGGTGG | -0.128 |
| CAAGCTCA | -0.221 |

| Sequence | PBM E-score |
| --- | --- |
| CGATTATA | 0.204 |
| AAGTCCTC | -0.169 |
| AATCCTGT | -0.0464 |
| CGAATAAC | 0.211 |
| ACCGAGGT | 0.225 |
| GAGCCAGC | -0.127 |
| GTGTTCAA | -0.0789 |
| CCTCACCG | -0.0928 |
| CCCCCGAC | -0.179 |
| AAAGCGGC | 0.0182 |
| CGAAGTTA | 0.128 |
| CTCTCTTA | -0.0125 |
| AGTGCTCA | -0.297 |
| AGACGTGG | -0.227 |
| ACTTTAAA | 0.018 |
| AAAGTGTA | -0.103 |
| TTGAACAA | -0.0174 |
| TCGCTTAA | 0.394 |
| AGACCGTA | 0.235 |
| CAAGGATC | 0.00425 |
| CCCGGCAG | -0.122 |
| ATGCGTGG | -0.0188 |
| ACTAGATC | -0.0944 |
| GACCTCGA | 0.107 |
| ATCCGTGA | 0.0516 |

| Sequence | PBM E-score |
| --- | --- |
| ATCTAAGG | -0.207 |
| ACCTAACG | 0.0706 |
| TGATTGAA | 0.0812 |
| CTCGTAAA | 0.475 |
| CATGTTTC | 0.0119 |
| ATTTATCA | -0.00297 |
| AGGCCCGA | 0.041 |
| ACGAAAGA | 0.205 |
| CTCACTTA | -0.0382 |
| ATGACGCG | 0.186 |
| AACTGTCC | -0.0452 |
| CACGTGGA | -0.17 |
| CGCCCTAG | -0.133 |
| CACTTAGA | -0.144 |
| CGTTACAA | 0.0964 |
| GTAACAGA | 0.0792 |
| ATAACGAG | 0.205 |
| GGACTCAA | -0.239 |
| GGAACGCA | 0.23 |
| CAAGCCCC | -0.197 |
| GAGCGGCA | -0.0931 |
| ATATAAAT | 0.129 |
| CAGTGACA | -0.271 |
| ACTAGCTG | 0.113 |
| AACCCAAA | -0.103 |

| Sequence | PBM E-score |
| --- | --- |
| CCCGCGAC | 0.0171 |
| AGTTAGCG | 0.0306 |
| GCACAGGC | 0.0112 |
| CAGACGGC | -0.198 |
| CGGGCCGC | 0.0557 |
| AGCAGGCG | 0.0758 |
| GACGTTGA | -0.115 |
| AACATTAG | -0.0606 |
| TACAAAAA | -0.013 |
| ATCAAAAA | -0.179 |
| GATATCCA | -0.0159 |
| CGTGACTC | -0.128 |
| CGTCACAC | 0.0499 |
| CAGCAGGG | -0.186 |
| CCCTCCAC | -0.259 |
| ACATCTCA | -0.145 |
| ATTACCAG | -0.0353 |
| ACGGGTCC | 0.0774 |
| ACAACTGG | -0.155 |
| TTCTAGAA | -0.0493 |
| ATAAGACG | 0.0331 |
| TATCCTGA | 0.0693 |
| ACCGCGCG | 0.123 |
| CGTGTCTA | -0.0169 |
| GCGTGGAC | -0.108 |

| Sequence | PBM E-score |
| --- | --- |
| ACCATGGA | -0.121 |
| TGTACTAA | 0.092 |
| GCGACGCA | 0.173 |
| ACGCGAAC | 0.24 |
| CGAGATAC | 0.261 |
| GAAATACA | -0.00128 |
| GTGGTCAA | -0.0412 |
| AAGAAGAG | -0.0693 |
| AGTGGGCA | -0.0436 |
| AGTCCACC | -0.3 |
| CTCTGGGA | -0.25 |
| GATCAATA | -0.175 |
| CGTCCACG | -0.106 |
| ATAATTCG | 0.202 |
| CAAGTAGC | -0.194 |
| CGGGCTAC | -0.0124 |
| AGCTTTTA | 0.165 |
| CTAACTGA | -0.183 |
| TATGAGAA | -0.151 |
| AGGAACAT | -0.104 |
| CTCAGCTA | -0.238 |
| AGAAACTA | -0.145 |
